{"source": "the supplement of paper PMC4166925", "note": "± gives the standard deviation of the averaged measurements. The full ranking holds about 33,000 sequences; the median of “E-score (dimensionless, -0.5 to 0.5)” is about -0.046, and the highest 2% start at about 0.36. This is one part of the list.", "data": [{"test_system": "T1, SpTbr T-box DNA-binding domain (GST fusion)", "T1 sequence": "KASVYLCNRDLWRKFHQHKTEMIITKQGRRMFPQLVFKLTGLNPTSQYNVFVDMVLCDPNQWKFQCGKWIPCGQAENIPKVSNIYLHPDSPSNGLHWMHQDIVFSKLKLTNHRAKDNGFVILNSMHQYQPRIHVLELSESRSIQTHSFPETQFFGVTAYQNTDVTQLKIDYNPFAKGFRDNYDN", "assay": "PBM E-score of 8-mer (E-score (dimensionless, -0.5 to 0.5)); Tbr is Tbrain of the sea star Patiria miniata (Pm) or the sea urchin Strongylocentrotus purpuratus (Sp); higher = stronger binding preference; most listed sequences are background and not binding sites", "conditions": "the construct has about 5 more residues each side", "how_it_was_run": "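GST-fused Tbr T-box DNA-binding domains (the whole T-box plus about five flanking residues) were expressed in BL21 E. coli at 20 °C and purified by glutathione affinity chromatography. Universal Agilent oligonucleotide arrays were made double-stranded by primer extension, incubated with 200 nM protein in PBS (pH 7.5), then scanned and quantified. Every ungapped 8-mer was scored from probe intensities. The Universal PBM Analysis Suite gave each word an enrichment E-score, averaged over duplicate arrays.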", "values": [{"sequence": "AGTTCGAG", "PBM E-score of 8-mer": "0.0209 ± 0.058"}, {"sequence": "AAATTCAC", "PBM E-score of 8-mer": "0.266 ± 0.021"}, {"sequence": "GATAAATA", "PBM E-score of 8-mer": "-0.0381 ± 0.072"}, {"sequence": "GGCTAAAC", "PBM E-score of 8-mer": "-0.169 ± 0.0099"}, {"sequence": "TGGTTGAA", "PBM E-score of 8-mer": "-0.163 ± 0.022"}, {"sequence": "CACCGAAG", "PBM E-score of 8-mer": "0.0762 ± 0.036"}, {"sequence": "ATGATCCC", "PBM E-score of 8-mer": "-0.256 ± 0.045"}, {"sequence": "AACGTCAC", "PBM E-score of 8-mer": "0.265 ± 0.046"}, {"sequence": "GGGCGCAA", "PBM E-score of 8-mer": "0.116 ± 0.043"}, {"sequence": "GGATTATA", "PBM E-score of 8-mer": "-0.0746 ± 0.014"}, {"sequence": "CGCAAGGC", "PBM E-score of 8-mer": "0.169 ± 0.058"}, {"sequence": "ATCCTACA", "PBM E-score of 8-mer": "-0.146 ± 0.057"}, {"sequence": "CGGAGCAC", "PBM E-score of 8-mer": "-0.183 ± 0.1"}, {"sequence": "ATCATGCG", "PBM E-score of 8-mer": "0.0497 ± 0.038"}, {"sequence": "ACGGGGAG", "PBM E-score of 8-mer": "0.00962 ± 0.00042"}, {"sequence": "CGTAACAG", "PBM E-score of 8-mer": "0.0475 ± 0.054"}, {"sequence": "ATTCAAAG", "PBM E-score of 8-mer": "-0.162 ± 0.075"}, {"sequence": "CGCGGGTC", "PBM E-score of 8-mer": "0.186 ± 0.018"}, {"sequence": "CAACGACA", "PBM E-score of 8-mer": "0.24 ± 0.0025"}, {"sequence": "CCTTAGTA", "PBM E-score of 8-mer": "-0.196 ± 0.029"}, {"sequence": "AACTCCGC", "PBM E-score of 8-mer": "-0.19 ± 0.015"}, {"sequence": "CAGACCTA", "PBM E-score of 8-mer": "-0.199 ± 0.0024"}, {"sequence": "CTCGAAAA", "PBM E-score of 8-mer": "-0.112 ± 0.075"}, {"sequence": "CAAAAACG", "PBM E-score of 8-mer": "-0.0456 ± 0.032"}, {"sequence": "CGGGGGCA", "PBM E-score of 8-mer": "-0.123 ± 0.051"}, {"sequence": "CAACCAAG", "PBM E-score of 8-mer": "-0.217 ± 0.01"}, {"sequence": "AGTAACAG", "PBM E-score of 8-mer": "0.052 ± 0.013"}, {"sequence": "GACGAATC", "PBM E-score of 8-mer": "0.112 ± 0.076"}, {"sequence": "AGATACCC", "PBM E-score of 8-mer": "-0.143 ± 0.013"}, {"sequence": "CGCTCATA", "PBM E-score of 8-mer": "-0.0486 ± 0.057"}, {"sequence": "AAGCCCGG", "PBM E-score of 8-mer": "-0.24 ± 0.028"}, {"sequence": "GAACGATA", "PBM E-score of 8-mer": "0.000605 ± 0.083"}, {"sequence": "ACATGAGC", "PBM E-score of 8-mer": "0.0251 ± 0.044"}, {"sequence": "CAGACCCC", "PBM E-score of 8-mer": "-0.342 ± 0.019"}, {"sequence": "ACCTCTGG", "PBM E-score of 8-mer": "0.0361 ± 0.051"}, {"sequence": "AAACCCTA", "PBM E-score of 8-mer": "-0.104 ± 0.0094"}, {"sequence": "TAGAGAGA", "PBM E-score of 8-mer": "-0.0974 ± 0.08"}, {"sequence": "CCCCAGGG", "PBM E-score of 8-mer": "-0.0372 ± 0.051"}, {"sequence": "ACAAATCA", "PBM E-score of 8-mer": "0.0598 ± 0.0013"}, {"sequence": "AGAGATGG", "PBM E-score of 8-mer": "-0.125 ± 0.015"}, {"sequence": "GTGATAAC", "PBM E-score of 8-mer": "0.395 ± 0.0074"}, {"sequence": "GGATCACA", "PBM E-score of 8-mer": "0.267 ± 0.017"}, {"sequence": "CACCGCCA", "PBM E-score of 8-mer": "0.221 ± 0.035"}, {"sequence": "GCGTCGCC", "PBM E-score of 8-mer": "0.203 ± 0.067"}, {"sequence": "CAATTGCC", "PBM E-score of 8-mer": "0.0264 ± 0.041"}, {"sequence": "ATGCCCAC", "PBM E-score of 8-mer": "-0.101 ± 0.065"}, {"sequence": "CGGTTCTA", "PBM E-score of 8-mer": "-0.0829 ± 0.072"}, {"sequence": "CTCCAACC", "PBM E-score of 8-mer": "-0.131 ± 0.039"}, {"sequence": "AGACGGGG", "PBM E-score of 8-mer": "-0.238 ± 0.026"}, {"sequence": "CTGAATAA", "PBM E-score of 8-mer": "-0.218 ± 0.0064"}, {"sequence": "TAATTATA", "PBM E-score of 8-mer": "-0.2 ± 0.0056"}, {"sequence": "GGCGAAGA", "PBM E-score of 8-mer": "0.0993 ± 0.047"}, {"sequence": "CGCACTAC", "PBM E-score of 8-mer": "0.13 ± 0.058"}, {"sequence": "CCAGCTTC", "PBM E-score of 8-mer": "-0.142 ± 0.058"}, {"sequence": "CCCCTACG", "PBM E-score of 8-mer": "-0.185 ± 0.019"}, {"sequence": "CACGGTAG", "PBM E-score of 8-mer": "-0.0942 ± 0.0082"}, {"sequence": "ACCACTTG", "PBM E-score of 8-mer": "0.0957 ± 0.0097"}, {"sequence": "CAAGGATA", "PBM E-score of 8-mer": "-0.175 ± 0.043"}, {"sequence": "GTCGTTAA", "PBM E-score of 8-mer": "0.11 ± 0.042"}, {"sequence": "CCCAAAAC", "PBM E-score of 8-mer": "-0.028 ± 0.014"}, {"sequence": "AGCCCCTC", "PBM E-score of 8-mer": "-0.0282 ± 0.03"}, {"sequence": "CATTATGA", "PBM E-score of 8-mer": "-0.0907 ± 0.081"}, {"sequence": "CACTAGTG", "PBM E-score of 8-mer": "0.243 ± 0.0097"}, {"sequence": "GACGGATA", "PBM E-score of 8-mer": "-0.143 ± 0.099"}, {"sequence": "ATCGCTTA", "PBM E-score of 8-mer": "0.0586 ± 0.017"}, {"sequence": "CGGGGGAG", "PBM E-score of 8-mer": "-0.272 ± 0.048"}, {"sequence": "TGCACTAA", "PBM E-score of 8-mer": "0.114 ± 0.11"}, {"sequence": "AGCACATC", "PBM E-score of 8-mer": "0.168 ± 0.039"}, {"sequence": "AGATTCGG", "PBM E-score of 8-mer": "-0.143 ± 0.046"}, {"sequence": "GAGTATGA", "PBM E-score of 8-mer": "-0.047 ± 0.066"}, {"sequence": "ACTATTGA", "PBM E-score of 8-mer": "-0.0122 ± 0.052"}, {"sequence": "TCCGATAA", "PBM E-score of 8-mer": "-0.0593 ± 0.01"}, {"sequence": "AGTGGATA", "PBM E-score of 8-mer": "-0.0344 ± 0.053"}, {"sequence": "ACATGAGT", "PBM E-score of 8-mer": "-0.0726 ± 0.023"}, {"sequence": "ACTTGAGC", "PBM E-score of 8-mer": "0.0871 ± 0.018"}, {"sequence": "GATTTTAC", "PBM E-score of 8-mer": "-0.1536 ± 0.0012"}, {"sequence": "AATTCCTC", "PBM E-score of 8-mer": "-0.138 ± 0.064"}, {"sequence": "CCTATATC", "PBM E-score of 8-mer": "-0.169 ± 0.011"}, {"sequence": "GTCGTGGA", "PBM E-score of 8-mer": "0.0519 ± 0.052"}, {"sequence": "ACAAGACC", "PBM E-score of 8-mer": "0.0171 ± 0.048"}, {"sequence": "AAGTAGAA", "PBM E-score of 8-mer": "0.0466 ± 0.046"}, {"sequence": "ACCAGGAG", "PBM E-score of 8-mer": "-0.132 ± 0.005"}, {"sequence": "CGAAATAG", "PBM E-score of 8-mer": "-0.13 ± 0.061"}, {"sequence": "CTCGAAGC", "PBM E-score of 8-mer": "0.0692 ± 0.023"}, {"sequence": "TCTGCGCA", "PBM E-score of 8-mer": "0.00691 ± 0.0057"}, {"sequence": "CTCATAAG", "PBM E-score of 8-mer": "-0.13 ± 0.037"}]}]}
